Some of the results follow. Antibody binding of pooled human sera (four to six donors per pool; dilution not stated) to peptides of the Trypanosoma cruzi antigen TSSA on microarrays. Quantile-normalised fluorescence in arbitrary units, mean of duplicate arrays; higher = more binding. No active / inactive call. The uninfected pools are read here as the healthy donors of the same country. The strongest signals lie near the top of the scale (about 60,000).
test system: pooled sera of chronic Chagas disease patients, Argentina; test: antibody binding signal (normalised fluorescence) (arbitrary fluorescence units); higher = stronger serum antibody binding to peptide
Experimental: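 Microarray of 15-residue peptides over residues 30-55 of Trypanosoma cruzi TSSAII, each with 1 to 10 substitutions at naturally variable positions, probed with one serum pool per country.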

| Sequence | antibody binding signal |
| --- | --- |
| TEKKPAAGGTPSQPG | 1030 |
| TPPSGTENKPATGGT | 49000 |
| PPSGTDNKPAAGETP | 34800 |
| EKKTAAGEAPSPPGA | 278 |
| GTENKAATGETPSPP | 35600 |
| NKTATGGTPSQSGAS | 502 |
| PPSGTDNKPATGETP | 41900 |
| TENKTAAGGAPSPPG | 26000 |
| SGTDNKAATGEAPSQ | 25200 |
| GKDKKPATGEAPSPP | 42100 |
| TDKKTAAGEAPSQPG | 5710 |
| TPPSGKDKKAATGEA | 8290 |
| KPAAGGTPSQPGASS | 166 |
| SGKDNKPATGGAPSQ | 1940 |
| SGKDNKAATGEAPSP | 23400 |
| SGTDKKTATGGAPSQ | 3770 |
| GKDKKAATGETPSQS | 1880 |
| GTEKKPAAGEAPSQS | 3210 |
| TPPSGTEKKPAAGEA | 43100 |
| GTENKAAAGGTPSQS | 40300 |

| Sequence | antibody binding signal |
| --- | --- |
| TENKPAAGGTPSPPG | 45500 |
| DKKPATGGAPSQPGA | 1100 |
| EKKAAAGGTPSQPGA | 432 |
| SGTDNKTAAGEAPSQ | 300 |
| GTENKTATGETPSPS | 25100 |
| GTDKKTATGEAPSQS | 13600 |
| PSGKENKTAAGGTPS | 6780 |
| KDKKTAAGGAPSQSG | 183 |
| SGTDKKAATGGAPSQ | 1850 |
| ISTPPSGKDKKTATG | 18800 |
| KEKKAAAGEAPSQPG | 2640 |
| KDNKTATGGAPSQSG | 413 |
| TPPSGKDNKPAAGEA | 18700 |
| KDKKAATGGTPSPSG | 317 |
| GKDNKPATGETPSQS | 36900 |
| GKDNKPATGEAPSPP | 44200 |
| GTEKKPAAGGAPSQP | 1420 |
| PSGKENKTATGGTPS | 7140 |
| PSGKENKPAAGGAPS | 9400 |
| ENKTATGGAPSQPGA | 624 |
